Measured values from PMC12136788.
The other results are listed elsewhere or left out.

T1: UNK ZnF1-6 (called full-length) (human, UniProt Q9C0B0 30-357)
T1 sequence: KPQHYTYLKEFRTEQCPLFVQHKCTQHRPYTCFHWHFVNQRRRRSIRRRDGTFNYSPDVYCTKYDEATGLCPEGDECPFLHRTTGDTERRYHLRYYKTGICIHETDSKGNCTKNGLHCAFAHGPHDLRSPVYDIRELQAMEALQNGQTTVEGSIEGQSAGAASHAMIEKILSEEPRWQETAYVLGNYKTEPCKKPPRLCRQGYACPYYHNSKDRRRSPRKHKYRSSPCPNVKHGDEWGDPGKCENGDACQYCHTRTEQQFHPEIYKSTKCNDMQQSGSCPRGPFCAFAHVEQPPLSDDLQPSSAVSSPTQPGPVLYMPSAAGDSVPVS

B1: chr5:151662667:151662729:-|3pUTR|ENSG00000113140|msi1_unk|total|mutant (ssRNA)
RNA: GGGAGUUCUACAGUCCGACGAUCGCCAGGCUGUUUCAGCCAGGAAGGCCAAAAUCAAGAGUGAGAUGCCGAAAGUUGUAAAACCGAAAAAGUGGAGUUGGUGAAUCGGUUGUUCUUUCCUCACAUUUGGAUGAUUGUCAUAAGCAACAGAGGAUUGAGCAUCA
B2: chr19:41330322:41331077:-|three_prime_utr|ENSG00000105329|control|control|control (ssRNA)
RNA: GGGAGUUCUACAGUCCGACGAUCGUCUGCACUAUUCCUUUGCCCGGCAUCAAGGCACAGGGGACCAGUGGGGAACACUACUGUAGUUAGAUCUAUUUAUUGAGCACCUUGGGCACUGUUGAAGUGCCUUACAUUAAUGAACUCCAACAGAGGAUUGAGCAUCA
B3: ENSG00000070961:be:win_5151|3pUTR|ENSG00000070961|bound_else_gene|NA|bound_elsewhere_windowed (ssRNA)
RNA: GGGAGUUCUACAGUCCGACGAUCUAACAGAUUAGGUAAAAUGAGAUUACAUGAAAAGGUUCUAAAAUGAUAUAUUUAGAUGCAAUAAUUAACCAUAUGCUAGAAUGCCCACCUCUAAGCCAAUUGGAUUCUUUAGCUCUCUUUCAACAGAGGAUUGAGCAUCA
B4: chr17:32711987:32712195:-|CDS|ENSG00000176658|control|control|control (ssRNA)
RNA: GGGAGUUCUACAGUCCGACGAUCUCCUUCAGACAAAGAGGCUGUCAAGAAACUAAUUGAACGGUGUGGUUUUCAGGAUGAUGUAGCUUAUGGGAAGACCAAAAUUUUCAUUCGAACACCCCGAACAUUGUUUACCUUGGAAGACAACAGAGGAUUGAGCAUCA
B5: ENSG00000107863:be:win_1751|CDS|ENSG00000107863|bound_else_gene|NA|bound_elsewhere_windowed (ssRNA)
RNA: GGGAGUUCUACAGUCCGACGAUCAAAAAAUUCCACCAGAUCUAAAAACAUUGCAGUCAAACAGAAAUUUUCAGACUACUUGUGGAAUGUCACUGCCUCGGGGUAUUUCACAAGACAGGUCACCUCUUGUGAAAGUCCGAAGUACAACAGAGGAUUGAGCAUCA
B6: chr16:3436009:3436110:-|3pUTR|ENSG00000167981|unk|FALSE|unique (ssRNA)
RNA: GGGAGUUCUACAGUCCGACGAUCAUUAAAAUGAAGGCUCUUGCUAAAGUUAUUUUAAUUUUGUUUACGUAGUUUCUGACUUUUAGAAGGAGGAGAAUUUAUUUAUAUUUUGCCAGUUCUGCAGACAUAUCUAGGAAAGUAAAUCAACAGAGGAUUGAGCAUCA
B7: chrX:154436128:154436291:+|3pUTR|ENSG00000071553|msi1_unk|FALSE|overlapping (ssRNA)
RNA: GGGAGUUCUACAGUCCGACGAUCAUUCUAGGGUCUCCUUUCUCCUUAUUUAUUCUUGUGGCUACAUCAUCCCUGGCUGUGGAUAGUGCUUUUGUGUAGCAAAUGCUCCCUCCUUAAGGUUAUAGGGCUCCCUGAGUUUGGGAGCAACAGAGGAUUGAGCAUCA
B8: chr5:137939581:137939637:-|3pUTR|ENSG00000031003|msi1_unk|FALSE|overlapping (ssRNA)
RNA: GGGAGUUCUACAGUCCGACGAUCUGUUAGUAAAAUUUUGCAAUUCGCUGGUCACACAGCUCCCGGAUGAAGAUAACAGUUGGUAGACCAAAAGGUGACCUCGCUUAGUAUAUUGAAAACACACACCACACAUCACACACAGAACAACAGAGGAUUGAGCAUCA
B9: chr2:54972555:54972835:-|3pUTR|ENSG00000115310|msi1_unk|total|mutant (ssRNA)
RNA: GGGAGUUCUACAGUCCGACGAUCUGUGCACUGUGUAUGGUCCGUGCCGAUUGAUGCAGAUUUUCUGAAAUGAAAUGUUUGUUCCGACGAGAUCAUACCGGUAAAGCAGGAAUGACAAAGCUUGCUUUUCUGGUAUGUUCCCGGCAACAGAGGAUUGAGCAUCA
B10: chr3:160432293:160432405:+|CDS|ENSG00000113810|unk|FALSE|bound_elsewhere (ssRNA)
RNA: GGGAGUUCUACAGUCCGACGAUCGAAUUGUAUUUGCAACGGGUAGCAGAAUUGGACAAAAUUACUUAUGAAAGAGACAGUUUUAGACAGGCAUAUGAAGAUCUUCGGAAACAAAGGCUUAAUGAAUUUAUGGCAGGUUUUUAUCAACAGAGGAUUGAGCAUCA
B11: chr1:235808650:235808751:-|CDS|ENSG00000143669|unk|total|mutant (ssRNA)
RNA: GGGAGUUCUACAGUCCGACGAUCUGGAAAUGGGAUGCUUUAAAGGCUUAUCAGAACUUUGUUUUUGAAGAAGACAGAUUACACCGUAUACAGAUUGCAAAUCACAUUUGCAAUUUAAUCCAGAAAGGCAAUACCGUUGUUCAGCAACAGAGGAUUGAGCAUCA
B12: chr7:107202531:107202632:-|3pUTR|ENSG00000164597|msi1|FALSE|unique (ssRNA)
RNA: GGGAGUUCUACAGUCCGACGAUCUAUUCUGAGAACUCAUAAAUAAAAUUCAGCCAAGAUUAAUCAAUCAAUCAAUCAAUCAGUAGACGUCAGAGAUAAGCAACUUUUUUUUCCAUUUAUUUGAAAUAAUAUACAAGAAUAUAGCAACAGAGGAUUGAGCAUCA
B13: chr1:225494445:225494546:-|3pUTR|ENSG00000154380|msi1|FALSE|unique (ssRNA)
RNA: GGGAGUUCUACAGUCCGACGAUCUUGGGUGUUCCCUCUUCUUAUUUUCUCUCUGCCCACCUUGACACAGUAACUUCCUCUUAUAGUCAAGAUGAUGAUUAAGUGUUUAAUUUUUAUUCCAUUUUGUUCUGCAACACGUUCAGGCAACAGAGGAUUGAGCAUCA
B14: chr1:93152962:93153063:-|3pUTR|ENSG00000117500|msi1|FALSE|bound_elsewhere (ssRNA)
RNA: GGGAGUUCUACAGUCCGACGAUCGCUGGAAUUCUUGAUGAGCAAUAAUGAUAACCAGAGAGUGAUUUCAUUUACACUCAUAGUAGUAUAAAAAGAGAUACAUUUCCCUCUUAGGCCCCUGGGAGAAGAGCAGCUUAGAUUUCCCAACAGAGGAUUGAGCAUCA
B15: chr7:38725943:38726055:-|3pUTR|ENSG00000006715|unk|total|mutant (ssRNA)
RNA: GGGAGUUCUACAGUCCGACGAUCGAAAUUUUGGGGUCCACCGUGAAUAUUUUGUUAUUUAUUUGUUUGGCUCAUUCUUUAUACCGUAAUGGAAACAUAAGUCCCGGAGUCCGAAAUGAAUUUUUCCGACCUCCGUAAAACCAUCAACAGAGGAUUGAGCAUCA
B16: chr10:73251842:73251943:-|CDS|ENSG00000182180|msi1|FALSE|unique (ssRNA)
RNA: GGGAGUUCUACAGUCCGACGAUCUCGGCCGUUCUACCGCAUUGUGGCUGCUCACAACAAGUGUCCCAGGGAUGGCCGUUUCGUAGAGCAGCUGGGCUCCUAUGAUCCAUUGCCCAACAGUCAUGGAGAAAAACUCGUUGCCCUCAACAGAGGAUUGAGCAUCA
B17: chr8:124550783:124552991:-|three_prime_utr|ENSG00000170873|control|control|control (ssRNA)
RNA: GGGAGUUCUACAGUCCGACGAUCAUUAAUAAAACCUAAUUUGUCUUGAUCCAUUCCACUCUAUAAUAAAACAAAAGAUUUUGUAGGCAACUCGGAAUAUAGCUCUUUUGAAAGUACUCGACACCUUUAGAUAAGAAUUAAAACCAACAGAGGAUUGAGCAUCA
B18: chr15:100649042:100649144:+|3pUTR|ENSG00000183475|unk|total|mutant (ssRNA)
RNA: GGGAGUUCUACAGUCCGACGAUCUACCUCUGCUUUUCUUUUGCUGUGCUCUUGUUUUUAACUUAUUUUUUUUUUAACAACUGCCGUACACUACCCUGAGACACUGCAUCUCGAUUUCUAUCUCCCGUCCGAGUUGUACUUUUACAACAGAGGAUUGAGCAUCA
B19: chr4:56502255:56502306:+|3pUTR|ENSG00000174780|msi1_unk|total|mutant (ssRNA)
RNA: GGGAGUUCUACAGUCCGACGAUCAUUUCAGCUGGAGUCUGAAGAUACUUGUUUCUGUUCAAGUCCCACUUUAAAUUAUGUCUCCGGAGACUGAAAGUGGAAUCUUCUGAGCAUUCCUAAAUAUCUGCUCCGAAAUAUCAUGUGCAACAGAGGAUUGAGCAUCA
B20: chr6:133987709:133987810:+|3pUTR|ENSG00000028839|unk|total|mutant (ssRNA)
RNA: GGGAGUUCUACAGUCCGACGAUCAAUAACAAACCGGAAUUUUUUUUCUUGCAGAUCCGAAAUAAAAACGUGUAUAUAAACUCCCGGGAACCAGACCCGAAGUUUACCGAUAAAGGAUAAUGUUUUAUGUUGCUAAUUUAAUAUCAACAGAGGAUUGAGCAUCA
B21: chr17:29498396:29498497:+|CDS|ENSG00000160551|msi1|total|mutant (ssRNA)
RNA: GGGAGUUCUACAGUCCGACGAUCCAGCAGCCAAAGCAGCCGUGUUAACAGUCUUCCAGAUGUCUCAGAUGACAAGAGUGAGCCCGACAUGAUGGAGGGAGACCACACAGUGAUGUCUAACAGUUCUGUUAUCCAUUUAAAACCCAACAGAGGAUUGAGCAUCA
B22: chr6:83525322:83525423:+|3pUTR|ENSG00000146250|msi1|total|mutant (ssRNA)
RNA: GGGAGUUCUACAGUCCGACGAUCACAAUUACAAUGUGUAUUAUUUAAAAAUGGGAGAAACCGUUUGUUCUAUGAAAUAAACCCCGUUCCGAAACCGGGAAGCUGAGACAUUUUAAGAUCUCAAGUUUUUAUUUAACUAAUACUCAACAGAGGAUUGAGCAUCA

Target: T1, UNK ZnF1-6 (called full-length)
Assay: nsRBNS (natural sequence RNA bind-n-seq); RBNS binding buffer (assumed for nsRBNS): 25 mM Tris pH 7.5, 150 mM KCl, 3 mM MgCl2, 0.01% Triton X-100, 500 ug/ml BSA, 20 U/ml SUPERase-In, 4 C; UNK is unkempt and MSI1 is Musashi-1; names of the RNAs are library labels; protein concentration not given here; high values mean tight binding

Binder | binding signal
B1 | 0.883 enrichment R
B2 | 2.74 enrichment R
B3 | 2.18 enrichment R
B4 | 0.434 enrichment R
B5 | 0.397 enrichment R
B6 | 4.35 enrichment R
B7 | 1.65 enrichment R
B8 | 6.92 enrichment R
B9 | 0.329 enrichment R
B10 | 0.887 enrichment R
B11 | 0.401 enrichment R
B12 | 2.67 enrichment R
B13 | 0.807 enrichment R
B14 | 1.87 enrichment R
B15 | 0.419 enrichment R
B16 | 0.505 enrichment R
B17 | 4.28 enrichment R
B18 | 2.04 enrichment R
B19 | 0.416 enrichment R
B20 | 0.562 enrichment R
B21 | 0.671 enrichment R
B22 | 0.641 enrichment R
